# According to PubChem BioAssay AID1768 (National Center for Advancing Translational Sciences (NCATS), 2009):
# The campaign covered roughly 270,000 compounds. About 620 (0.23%) were called active. The inconclusive results got no clear call from the source; some entries with a clear call stand among them for comparison. Calls follow the shape of the dose curve; as a rule, active = well fitted inhibition curve with a large enough effect in the polarisation, with a control signal flat (not every such curve was filed as active); inconclusive = small, poorly fitted or top-dose-only effect, or effect the other way, or a change in a side signal; inactive = no such curve, though single readings can be large or run the other way; the % refers to the polarisation. A potency beside an inconclusive call is a rough fit, not a confirmed value. A note “side channel” means that the fit belongs to a control or component signal, not to the main read-out.
# Target: Menin (Homo sapiens) (UniProt O00255)
# Experiment: qHTS Assay for Inhibitors Targeting the Menin-MLL Interaction in MLL Related Leukemias: Competition With Texas Red Labeled MLL-derived Mutant Peptide; as to FP activity change, negative = inhibition: % of control where 0% means no effect
# Conditions: fluorescence polarization; FP activity change, negative = inhibition: at 61.6 µM (top of the series)
# Potency is read from the fitted curve at half-maximal effect; tags tell the direction and shape of the fitted curve or compound fluorescence and quenching.
# UniProt O00255, sequence (O00255 whole entry, looked up): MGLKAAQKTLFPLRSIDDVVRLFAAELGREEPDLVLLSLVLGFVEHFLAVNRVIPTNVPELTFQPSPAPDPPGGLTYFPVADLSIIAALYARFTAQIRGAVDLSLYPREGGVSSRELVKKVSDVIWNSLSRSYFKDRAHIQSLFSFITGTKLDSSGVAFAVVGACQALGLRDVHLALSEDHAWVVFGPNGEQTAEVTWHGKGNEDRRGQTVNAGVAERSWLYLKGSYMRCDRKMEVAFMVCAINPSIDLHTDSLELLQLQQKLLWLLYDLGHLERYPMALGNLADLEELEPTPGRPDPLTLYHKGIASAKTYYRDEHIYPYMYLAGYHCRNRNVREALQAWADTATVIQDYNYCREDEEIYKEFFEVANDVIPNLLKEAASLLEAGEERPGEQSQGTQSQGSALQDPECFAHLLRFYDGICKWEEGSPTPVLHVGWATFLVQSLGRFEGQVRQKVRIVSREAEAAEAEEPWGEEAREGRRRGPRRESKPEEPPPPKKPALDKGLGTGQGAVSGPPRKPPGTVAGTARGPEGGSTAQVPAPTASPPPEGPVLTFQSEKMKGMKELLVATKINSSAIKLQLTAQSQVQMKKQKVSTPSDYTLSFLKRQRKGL
SMILES,Potency,"FP activity change, negative = inhibition"
CC1(OC(=O)c2cnc3ccccc3n2)C(=O)C=C2C=C(C3CC3)OC=C2C1=O (configuration not stated),"inconclusive: 22.4 µM [inhibitor, partial curve]",
CC12CC(NC(=O)N1c1cccc(C(=O)N3CCN(c4ccccn4)CC3)c1)c1ccccc1O2 (configuration not stated),"inconclusive: 28.2 µM [fluorescent, side channel, single point]",
CCCCNC(=O)c1onc(CSc2cc(C)ccc2C)c1C(=O)O,"inconclusive: 31.6 µM [quencher, side channel, single point]",
COc1cc(NC(=S)Nc2ccc(Br)cc2Cl)c(OC)cc1Cl,"inconclusive: 39.8 µM [quencher, side channel, single point]",
Cc1ccc(-c2c(C(=O)NC(C)C)oc(=O)c3ccccc23)cc1,"inconclusive: 39.8 µM [fluorescent, side channel, partial curve]",
O=C(Nc1cccc(F)c1)C1CCN(S(=O)(=O)c2cccc3nonc23)CC1,"inconclusive: 17.8 µM [quencher, side channel, single point]",
Oc1ccc(C2=NN(c3ccccc3)C(c3ccc(F)cc3)C2)cc1 (configuration not stated),"inconclusive: 11.2 µM [quencher, side channel, partial curve]",
Cc1cc(CN(C)C(=O)CC2C(=O)NCCN2Cc2ccc(-c3ccccc3)cc2)on1 (configuration not stated),"inconclusive: 35.5 µM [fluorescent, side channel, partial curve]",
Cc1cc(C)c(OCC(=O)Nc2cc(C(=O)O)cc(C(=O)O)c2)cc1C,,inactive: 1.96%
Cc1ccc(CSc2nnc(SCC(=O)N/N=C/c3c[nH]c4ccccc34)s2)cc1,"inconclusive: 3.55 µM [quencher, side channel, partial curve]",
CCCC(O)(c1ccc(OC)cc1)C(CN1CCOCC1)c1ccccc1 (configuration not stated),"inconclusive: 12.6 µM [fluorescent, side channel, partial curve]",
O=C1CC(N(O)c2ccccc2)C(=O)N1c1cc(Cl)cc(Cl)c1 (configuration not stated),"inconclusive: 28.2 µM [quencher, side channel, partial curve]",
Cc1cc(C)c(C2=NOC3C4CCC(C4)C23)c(C)c1 (configuration not stated),"inconclusive: 17.8 µM [fluorescent, side channel, partial curve]",
COc1ccc(C(c2nnnn2Cc2ccccc2)N2CCN(c3ccccc3)CC2)cc1 (configuration not stated),"inconclusive: 8.91 µM [inhibitor, single point]",
O=C(NNC(=S)NC(=O)c1ccccc1[N+](=O)[O-])c1ccccc1O,"inconclusive: 39.8 µM [quencher, side channel, single point]",
Cc1c(OCC(=O)N2CCC(C(N)=O)CC2)ccc2c1oc(=O)c1ccccc12,"inconclusive: 39.8 µM [fluorescent, single point]",
Cc1ccc(N/C=C(/C#N)c2ccsc2)cc1,"inconclusive: 39.8 µM [quencher, side channel, single point]",
COc1ccc2c(c1)[nH]c1c(=O)n(Cc3ccccn3)cnc12,,inactive: -10.2%
CC(=O)Nc1ncc(N=Nc2cccc(C(F)(F)F)c2)s1,"inconclusive: 22.4 µM [quencher, side channel, partial curve]",

SMILES,Potency,"FP activity change, negative = inhibition"
Cc1ccc(C)c(N=Nc2ccc(O)c3ncccc23)c1,"inconclusive: 11.2 µM [quencher, side channel, partial curve]",
Cc1cc(C(=O)O)ccc1-c1ccc(/C=N/n2cnnc2)o1,"inconclusive: 28.2 µM [inhibitor, single point]",
COc1ccc(/C(O)=C2/C(=O)C(=O)N(c3ccccn3)C2c2ccc(OC)cc2)cc1 (configuration not stated),"inconclusive: 39.8 µM [quencher, side channel, single point]",
O=C(c1ccc(Cl)cc1)C1CCCN(Cc2cnn(-c3ccccc3)c2)C1 (configuration not stated),,inactive: -0.398%
Cc1ccc(-c2cc(C(=O)N3N=C(C(F)F)CC3(O)C(F)F)c3ccccc3n2)cc1C (configuration not stated),,inactive: -11.9%
COc1cccc(NC(=O)C2C(c3ccccc3)C2(Cl)Cl)c1 (configuration not stated),"inconclusive: 15.8 µM [quencher, side channel, partial curve]",
CC(=O)c1ccc(NC(=S)NC(NC(=O)c2ccco2)C(Cl)(Cl)Cl)cc1 (configuration not stated),"inconclusive: 15.8 µM [quencher, side channel, partial curve]",
COc1ccccc1CNC(=O)COC(=O)c1cc(-c2ccco2)nc2ccccc12,"inconclusive: 17.8 µM [quencher, side channel, partial curve]",
O=C(c1cc(-c2ccco2)on1)N1CCc2ccccc2C1,"inconclusive: 11.2 µM [quencher, side channel, partial curve]",
CCCC1(C(=O)OC)C=C2C(=C(C)C(=O)C2C)CN1 (configuration not stated),"inconclusive: 25.1 µM [inhibitor, partial curve]",
c1ccc(COc2ccccc2CNC23CC4CC(CC(C4)C2)C3)cc1,"inconclusive: 0.794 µM [fluorescent, side channel, full curve]",
S=c1[nH]nc(Nc2cccc(Cl)c2)s1,"inconclusive: 39.8 µM [quencher, side channel, single point]",
O=C(c1ccccc1)c1nn(-c2ccccc2)c(=O)cc1C(F)(F)F,"inconclusive: 10 µM [inhibitor, partial curve]",
O=S(=O)(CCc1ccccc1)c1nc2ccccc2s1,,inactive: 4.63%
CN(C)/C=C1/C(=O)N(c2ccc([N+](=O)[O-])cc2)N=C1c1ccccc1,"inconclusive: 8.91 µM [quencher, side channel, partial curve]",
Cc1[nH]n(C(N)=S)c(=O)c1N=Nc1cccc([N+](=O)[O-])c1C,"inconclusive: 28.2 µM [quencher, side channel, partial curve]",
O=C(CN1c2cccc3cccc(c23)S1(=O)=O)Nc1cccc(S(=O)(=O)N2CCOCC2)c1,"inconclusive: 20 µM [quencher, side channel, single point]",
O=C(O)CNC(=S)N(Cc1ccccc1Cl)C1CCCC1,"inconclusive: 31.6 µM [quencher, side channel, single point]",
